# Measurements taken from publication PMC4336329 (PLoS ONE, 2015).
# About 2,200 (0.71%) of roughly 310,000 compounds showed an effect of 50% or more. The effect is printed as a negative number. This is one part of the list.
# Biological target: human ether-à-go-go-related gene (hERG) potassium channel (human, UniProt Q12809)
# Assay: primary screen, population patch clamp on CHO cells stably expressing hERG
# human ether-à-go-go-related gene (hERG) potassium channel, sequence (Q12809 whole entry, looked up): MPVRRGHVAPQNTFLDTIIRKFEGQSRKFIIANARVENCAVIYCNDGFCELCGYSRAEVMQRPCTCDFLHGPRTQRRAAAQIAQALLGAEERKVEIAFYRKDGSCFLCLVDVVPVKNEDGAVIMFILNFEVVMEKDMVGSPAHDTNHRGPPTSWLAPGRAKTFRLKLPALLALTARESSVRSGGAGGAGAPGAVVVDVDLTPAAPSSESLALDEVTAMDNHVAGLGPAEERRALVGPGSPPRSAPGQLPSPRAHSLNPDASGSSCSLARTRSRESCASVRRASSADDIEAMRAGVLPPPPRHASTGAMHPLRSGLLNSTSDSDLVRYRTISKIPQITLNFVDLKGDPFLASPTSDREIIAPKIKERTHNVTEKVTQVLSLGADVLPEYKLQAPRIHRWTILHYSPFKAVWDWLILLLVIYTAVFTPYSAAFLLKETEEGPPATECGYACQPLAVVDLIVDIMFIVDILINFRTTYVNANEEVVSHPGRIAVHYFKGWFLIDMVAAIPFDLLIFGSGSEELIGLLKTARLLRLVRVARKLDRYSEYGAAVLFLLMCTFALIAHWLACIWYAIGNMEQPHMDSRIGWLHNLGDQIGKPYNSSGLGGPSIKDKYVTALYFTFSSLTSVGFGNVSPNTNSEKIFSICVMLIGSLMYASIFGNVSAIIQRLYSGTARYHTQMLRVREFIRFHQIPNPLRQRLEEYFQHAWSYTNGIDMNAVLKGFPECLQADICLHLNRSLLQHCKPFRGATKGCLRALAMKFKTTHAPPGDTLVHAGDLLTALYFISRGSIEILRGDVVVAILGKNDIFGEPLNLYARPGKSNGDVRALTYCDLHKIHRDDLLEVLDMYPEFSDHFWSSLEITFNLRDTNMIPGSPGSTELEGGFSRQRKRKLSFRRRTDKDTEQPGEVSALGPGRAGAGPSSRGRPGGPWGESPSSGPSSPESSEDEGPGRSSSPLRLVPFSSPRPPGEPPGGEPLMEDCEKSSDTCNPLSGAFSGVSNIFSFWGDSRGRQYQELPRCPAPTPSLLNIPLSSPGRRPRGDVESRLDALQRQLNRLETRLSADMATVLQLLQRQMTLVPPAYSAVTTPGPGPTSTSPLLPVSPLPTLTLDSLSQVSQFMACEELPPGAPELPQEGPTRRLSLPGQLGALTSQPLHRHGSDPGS
row,SMILES,"hERG current change (%, negative = inhibition) at 1uM [%]"
1,COc1ccccc1CNC(=O)c1ccc(CS(=O)(=O)c2ccccc2OC)o1,-8.57
2,CCOC(=O)CN1C(=O)N[C@@H](c2ccccc2)[C@@H](C(=O)OC)[C@H]1C,11.2
3,COC(=O)c1ccc(Cl)c(NC(=O)CSc2ncn[nH]2)c1,10.7
4,Cn1c(SCC(=O)NNC(=O)Cc2ccccc2)nc2ccccc2c1=O,6.65
5,C=CCN(CC=C)S(=O)(=O)c1ccc(F)cc1,-2.89
6,CCOc1cc(C(=O)NCc2ccc(F)cc2)ccc1OCC(=O)N1CCCCC1,-0.748
7,O=C(CNC(=O)C12CC3CC(CC(C3)C1)C2)N/N=C\c1ccccn1,-2.99
8,CCCc1cc(=O)[nH]c(SCC(=O)N2CCN(S(=O)(=O)c3ccc4ccccc4c3)CC2)n1,11.2
9,CC(=O)c1ccc(NC(=O)Nc2cccc3ccccc23)cc1,16.6
10,COC(=O)Cn1c(=O)c2c(nc3n2CCCN3Cc2ccccc2)n(C)c1=O,6.16
11,CCOC(=O)C1=C(CS(=O)(=O)c2ccc(F)cc2)NC(=O)NC1c1ccc(O)c(O)c1 (centres unmarked),17.4
12,Cc1cc(C)c2nc(SCC(=O)NC(=O)c3cccn3C)cc(C)c2c1,3.51
13,COC(C[C@H]1O[C@@H]1C(=O)[C@H](C)OCc1ccccc1)OC,21.7
14,COc1ccc(S(=O)(=O)NC2CCCC2)cc1NC(C)=O,17.3
15,Cc1csc(SCC(=O)NC2CCCC2)n1,10.9
16,O=C(CCNS(=O)(=O)c1ccccc1)NNC(=O)c1csc(N2CCOCC2)n1,8.57
17,O=C(COC(=O)/C=C/c1cccc(F)c1)NNC(=O)c1ccccc1,13.1
18,COc1ccc(NC(C)=O)cc1NC(C)c1nc2sc(C)c(C)c2c(=O)[nH]1 (centres unmarked),17
19,COc1ccccc1OCC(=O)Nc1nc2c(s1)CCCC2,14.5

row,SMILES,"hERG current change (%, negative = inhibition) at 1uM [%]"
1,COc1ccc(C2=C(O)C(C)N(c3ccccc3)C2=N)cc1OC (centres unmarked),11.2
2,Cc1ccc(NC(=O)CSc2nnnn2-c2ccc3c(c2)OCO3)cc1C,5.03
3,C/C(=C/C(=O)NCc1ccccc1)C(=O)O,3.27
4,COc1ccc(CCNCc2c(OC)ccc3ccccc23)cc1OC.Cl,7.47
5,O=C(O)CCC(=O)Nc1ccc(S(=O)(=O)N2CCCC2)cc1,7.51
6,Cc1ccc(-c2nnc(SCC(=O)OC(C)C)n2N)cc1,14.8
7,CC1CCCC(NC(=O)COC(=O)c2ccc3ncsc3c2)C1C (centres unmarked),3.58
8,Cc1ccc(C)n1-c1nnc(N2CCC(C(=O)N3CCN(C)CC3)CC2)s1,8.88
9,CCN(CC)C(=O)c1cccc(NC(=O)c2ccc3c(=O)n4c(nc3c2)CCC4)c1,15.8
10,CCOC(=O)c1cc(-c2ccccc2)n(CC(=O)N2CCCC2)c1C,2.09
11,CCC(=O)OCc1cc(=O)oc2ccc3ccccc3c12,21.4
12,O=C(OC1CCOC1=O)c1cc(S(=O)(=O)N2CCOCC2)c(Cl)cc1Cl (centres unmarked),1.09
13,Cc1cc(C)cc(N(CCC#N)C(=O)CSc2ncnc3sccc23)c1,-6.93
14,O=C(/C=C/c1ccccc1)NCCS(=O)(=O)N1CCN(c2ccccc2F)CC1,8.86
15,Cc1nn(-c2ccccc2)c(C)c1/C=C/C(=O)OCC(=O)Nc1ccc(C(N)=O)cc1,10.6
16,CNc1c(N)n(Cc2ccccc2)c(=O)[nH]c1=O,14.8
17,CN(C)S(=O)(=O)c1ccc(N2CCCC2)c(C(=O)Nc2nc(-c3ccc(F)c(F)c3)cs2)c1,16.5
18,COc1ccc(N=c2oc3cc(O)ccc3cc2C(=O)NCC2CCCO2)c(OC)c1 (centres unmarked),4.72
19,COc1ccc2c3c([nH]c2c1)C(C)N(CCC(=O)NN)CC3 (centres unmarked),13.9

row,SMILES,"hERG current change (%, negative = inhibition) at 1uM [%]"
1,CCN(CC)S(=O)(=O)c1ccc(NC(=O)c2cnccn2)cc1,13
2,O=c1oc2cc(OCc3nn[nH]n3)ccc2c2c1CCCC2,10.9
3,O=C(Nc1ccc(Br)cc1F)C1CCCN(S(=O)(=O)c2cnc[nH]2)C1 (centres unmarked),7.92
4,C=CCn1c(CC#N)nnc1N1CCOCC1.Cl,0.494
5,O=C(COC(=O)c1ccc(S(=O)(=O)Nc2ccccc2)cc1)NCc1ccco1,3.31
6,CCCC(=O)NNC(=O)c1c(O)c2ccccc2[nH]c1=O,14.4
7,O=C(CCn1c(=S)oc2ccccc21)Nc1cc([N+](=O)[O-])ccc1F,17.7
8,COc1ccc(C2CC23N=C(c2ccccc2)OC3=O)cc1 (centres unmarked),9.65
9,Cc1ccc(-c2ccc([C@H]3[C@H]4C=CC[C@@H](C)[C@@H]4C(=O)N3Cc3ccccc3)c(F)c2)cc1,5.29
10,O=S(=O)(/C=C/c1ccccc1)NCCc1ccccn1,7.57
11,O=C(CCCSc1nc2ccccc2[nH]1)N1CCN(c2ccc([N+](=O)[O-])cc2)CC1,-86.9
12,COc1ccc2nc(SCC(=O)NC(C)(C)C)[nH]c2c1,11.8
13,O=S1(=O)[C@H]2C[C@@H]3C=C[C@]2(CN1Cc1ccc(C(F)(F)F)cc1)O3,4.34
14,c1ccc(CCc2nn3c(Cc4ccccc4)nnc3s2)cc1,1.64
15,Cc1sc(-n2c(C)cc(/C=N/n3cnnc3)c2C)c(C#N)c1C,-0.338
16,Cn1c(SCC(=O)c2ccc3c(c2)Cc2ccccc2-3)nnc1-c1cccc(N)c1,6.59
17,CC1CCN(C(=O)c2ccc3c(c2NCCO)C(=O)c2ccccc2C3=O)CC1,13.8
18,O=C1CCN(CCc2ccccc2)CCN1[C@H](CSc1ccccc1)c1ccccc1,-72.2
